According to PubChem BioAssay AID2202238 (Ras Initiative Chemistry Research Team, Frederick National …, 2025):
This is one part of the list. These are further read-outs of the screen, such as a control signal, another cell line or another target. No call is given for them.

Biological target: GTPase KRas (Homo sapiens) (UniProt P01116)
Assay: Fragment capture on engineered cysteines, share of protein labelled (AID 2202238)
Parameters: protein at 5 µM with 500 µM competing thiol for 1.5 h
Details: KRAS G12D cysteine mutants, disulfide tethering, MALDI-TOF labeling, stronger effect = higher value, fragment at 500 µM
[1] = measured here: G75C mutant labeling
[2] = measured here: H94C mutant labeling
[3] = measured here: I36C mutant labeling
[4] = measured here: L120C mutant labeling
[5] = measured here: M67C mutant labeling
[6] = measured here: M72C mutant labeling
[7] = measured here: N86C mutant labeling
[8] = measured here: P121C mutant labeling
[9] = measured here: S122C mutant labeling
[10] = measured here: S136C mutant labeling
[11] = measured here: G60C mutant labeling
[12] = measured here: N26C mutant labeling

Sequence of UniProt P01116 (P01116 whole entry, looked up, the tested form may be a part): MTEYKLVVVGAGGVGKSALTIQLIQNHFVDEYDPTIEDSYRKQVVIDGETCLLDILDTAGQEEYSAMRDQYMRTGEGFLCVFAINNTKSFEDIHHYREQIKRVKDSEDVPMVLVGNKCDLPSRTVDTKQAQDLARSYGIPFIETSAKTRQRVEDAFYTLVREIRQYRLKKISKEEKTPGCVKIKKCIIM

| Compound | percent labeling [1] | percent labeling [2] | percent labeling [3] | percent labeling [4] | percent labeling [5] | percent labeling [6] | percent labeling [7] | percent labeling [8] | percent labeling [9] | percent labeling [10] | percent labeling [11] | percent labeling [12] |
| --- | --- | --- | --- | --- | --- | --- | --- | --- | --- | --- | --- | --- |
| Cn1cnc2cccc(CNC(=O)CCS)c21 | 22.9% | 30.5% | 42.5% | 24.2% | 41.4% | 28.4% | 24.2% | 34.4% | 32.9% | 50.1% |  |  |
| O=C(NCCS)c1occc1CN1C(=O)Cc2ccccc21 | 17.8% | 24.3% | 12.6% | 16.8% | 26% | 51% | 12.7% | 16.2% | 11.2% | 21.8% | 29.9% | 23.7% |
| O=C(NCCS)C1CCN(c2ccc3cccc(O)c3n2)CC1 | 8.1% | 13% | 7.9% | 8.1% | 15.4% | 12.2% | 10.4% | 10.5% | 5% | 11.2% | 23% | 22.7% |
| COc1ccc(Br)cc1C1(NC(=O)CCS)CC1 | 17.5% | 44.3% | 38.2% | 25.7% | 36.5% | 39.1% | 31.9% | 23.7% | 29.2% | 57.5% |  |  |
| Cc1ccc(C(=O)NCCS)cc1-c1cnn(C)c1 | 16.4% | 23.1% | 14.7% | 22.9% | 18.5% | 56.1% | 16.4% | 17% | 16.9% | 30.7% | 34.7% | 53.4% |
| CC(NC(=O)c1ccc(Br)o1)C(=O)NCCS (configuration not stated) | 10.8% | 30.5% | 23.2% | 46.6% | 29.6% | 14.4% | 21.6% | 28.4% | 26.7% | 39% | 26.6% | 31.5% |
| O=C(CCn1c(=O)[nH]c(=O)c2ccccc21)NCCS | 13.2% | 34% | 29.4% | 35.3% | 30.7% | 19.3% | 25.2% | 37.2% | 25.1% | 39.5% | 38.1% | 33.2% |
| O=C(CCCc1c[nH]c2ccccc12)NCCS | 16.6% | 18.6% | 12% | 24.4% | 46.3% | 32.7% | 14.1% | 16.5% | 12.5% | 25.3% | 32.5% | 24.9% |
| O=C(NCCS)c1ccc2c(Br)cnn2c1 | 6.4% | 8.4% | 9% | 9.3% | 8% | 20.6% | 10.5% | 9.4% | 6.8% | 11.2% | 22.8% | 19.7% |
| O=C(NCCS)c1occc1-c1ccc(F)cc1 | 19.9% | 25.2% | 10.7% | 27.2% | 15.1% | 44.1% | 5.5% | 11.5% | 8.4% | 24.4% | 30.5% | 26.9% |
| C[C@H]1OCC(=O)N(Cc2ccccc2)[C@@H]1C(=O)NCCS | 13.7% | 37.4% | 31.7% | 29.1% | 42.2% | 29.7% | 34.3% | 38.3% | 36.8% | 58.9% | 38.4% | 36.9% |
| O=C(CCS)N(c1ccc(F)cc1)C1CCC1 | 20.8% | 50.7% | 36.4% | 20.2% | 30.5% | 52.3% | 26.8% | 31.8% | 28.5% | 51.5% |  |  |
| O=C(NCCS)C1CC(=O)N(CCc2ccc(F)cc2)C1 (configuration not stated) | 18.8% | 41.1% | 37.7% | 44.1% | 42% | 41.5% | 28.5% | 36.3% | 33.2% | 55.6% | 46.4% | 50.8% |
| COc1nc(C)ccc1CNC(=O)CCS | 17.3% | 29.6% | 40.8% | 23.3% | 37.4% | 26.9% | 17.9% | 33.4% | 31.7% | 52.7% |  |  |
| O=C(CCS)NCc1ccc(CN2C(=O)CNC2=O)cc1 | 13% | 36.6% | 42.4% | 34.5% | 36.1% | 25.9% | 32.3% | 32% | 36.4% | 46.6% |  |  |
| O=C(NCCS)c1ncoc1-c1ccc(F)cc1 | 25.8% | 27.3% | 9% | 33.7% | 21.6% | 57.6% | 13.1% | 14.6% | 14% | 26.3% | 26.4% | 22% |
| O=C(NCCS)c1csc(COc2ccc(F)cc2)n1 | 13.1% | 17.2% | 18% | 17.8% | 13.5% | 40.9% | 11.1% | 13.6% | 8.9% | 23.2% | 20.5% | 14.9% |
| Cc1nc(C(=O)N2CCC(C(=O)NCCS)CC2)c(C)o1 | 10.7% | 32.7% | 23.3% | 33.5% | 26.2% | 11.7% | 21.4% | 28% | 28.1% | 45% | 26% | 31.7% |
| CC(C(=O)NCCS)N1CCCCCC1 (configuration not stated) | 18.5% | 42.3% | 37.6% | 27.6% | 45.4% | 24.3% | 25.9% | 35.8% | 30.2% | 44.4% | 36.6% | 39.8% |
| O=C(NCCS)C1CCCc2sc(Nc3ccccc3)nc21 (configuration not stated) | 16% | 17.7% | 9.6% | 17.8% | 12.2% | 25.1% | 7.8% | 8.4% | 3.5% | 10.1% | 34.7% | 22.8% |
| CC(C)(Oc1c(F)cccc1F)C(=O)NCCS | 28.4% | 39.5% | 14.5% | 27.7% | 21.4% | 25.4% | 19.1% | 51.5% | 21.1% | 36.4% | 52.8% | 37.1% |
| CC(=O)N1CCc2cc(C(=O)NCCS)ccc21 | 15.4% | 21.7% | 21.3% | 24.2% | 25.2% | 37.2% | 18.3% | 20.2% | 21.7% | 34.1% | 32.4% | 47.6% |
| O=C(CCS)Nc1ccccc1-c1ncc2n1CCCC2 | 16.7% | 40.7% | 51.8% | 29.7% | 49.6% | 37.2% | 31.3% | 31.3% | 31.3% | 56.7% |  |  |
| CN1CCN(CCc2cccc(NC(=O)CCS)c2)CC1 | 11% | 44% | 49.9% | 30.5% | 43.5% | 35.3% | 34.6% | 29% | 26.3% | 49.3% |  |  |
| O=C(NCCS)c1cc2scc(Br)c2s1 | 7.9% | 9.6% | 9.8% | 5.7% | 7.1% | 30.2% | 10.4% | 7.9% | 5.8% | 8.6% | 27.5% | 21.8% |
| Cc1nn(C(C)(C)C)c2nc(C(C)C)cc(C(=O)NCCS)c12 | 13.5% | 13.7% | 7.4% | 9.7% | 7.7% | 22.9% | 9.3% | 10.4% | 4.3% | 22.8% | 21.5% | 17.1% |
| O=C(NCCS)c1ncccc1Br | 21.3% | 37.7% | 23.7% | 48.1% | 29.7% | 32.8% | 40.8% | 32.8% | 33.6% | 45.9% | 32.2% | 38.5% |
| CC1(C(=O)NCCS)CCN(c2ccc(Cl)cc2C#N)CC1 | 8.8% | 12.8% | 8.1% | 11.2% | 9.3% | 24.5% | 7.7% | 9.3% | 5.6% | 15.3% | 25.2% | 29.2% |
| O=C(CCS)NCc1cccnc1Oc1cccc(F)c1 | 14.9% | 36.6% | 35.6% | 29.3% | 46.1% | 43.9% | 26.5% | 32.3% | 35% | 61.3% |  |  |
